# Experimental data as given in article PMC4336329 (PLoS ONE, 2015).
# Screen size: about 310,000 compounds; about 14,000 (4.5%) showed an effect of 50% or more. The effect is printed as a negative number. Some of the results follow. Where a SMILES comes first, the peptide text is derived from it. [ ]: non-standard residue; d: D form. The star is where a group is joined. Hyp = O=C(O)[CH]1C[CH](O)CN1; Cbz = O=C(OCc1ccccc1)*; OBn = c1ccc(CO*)cc1
# Target: human ether-à-go-go-related gene (hERG) potassium channel (human, UniProt Q12809)
# Sequence (Q12809 whole entry, looked up): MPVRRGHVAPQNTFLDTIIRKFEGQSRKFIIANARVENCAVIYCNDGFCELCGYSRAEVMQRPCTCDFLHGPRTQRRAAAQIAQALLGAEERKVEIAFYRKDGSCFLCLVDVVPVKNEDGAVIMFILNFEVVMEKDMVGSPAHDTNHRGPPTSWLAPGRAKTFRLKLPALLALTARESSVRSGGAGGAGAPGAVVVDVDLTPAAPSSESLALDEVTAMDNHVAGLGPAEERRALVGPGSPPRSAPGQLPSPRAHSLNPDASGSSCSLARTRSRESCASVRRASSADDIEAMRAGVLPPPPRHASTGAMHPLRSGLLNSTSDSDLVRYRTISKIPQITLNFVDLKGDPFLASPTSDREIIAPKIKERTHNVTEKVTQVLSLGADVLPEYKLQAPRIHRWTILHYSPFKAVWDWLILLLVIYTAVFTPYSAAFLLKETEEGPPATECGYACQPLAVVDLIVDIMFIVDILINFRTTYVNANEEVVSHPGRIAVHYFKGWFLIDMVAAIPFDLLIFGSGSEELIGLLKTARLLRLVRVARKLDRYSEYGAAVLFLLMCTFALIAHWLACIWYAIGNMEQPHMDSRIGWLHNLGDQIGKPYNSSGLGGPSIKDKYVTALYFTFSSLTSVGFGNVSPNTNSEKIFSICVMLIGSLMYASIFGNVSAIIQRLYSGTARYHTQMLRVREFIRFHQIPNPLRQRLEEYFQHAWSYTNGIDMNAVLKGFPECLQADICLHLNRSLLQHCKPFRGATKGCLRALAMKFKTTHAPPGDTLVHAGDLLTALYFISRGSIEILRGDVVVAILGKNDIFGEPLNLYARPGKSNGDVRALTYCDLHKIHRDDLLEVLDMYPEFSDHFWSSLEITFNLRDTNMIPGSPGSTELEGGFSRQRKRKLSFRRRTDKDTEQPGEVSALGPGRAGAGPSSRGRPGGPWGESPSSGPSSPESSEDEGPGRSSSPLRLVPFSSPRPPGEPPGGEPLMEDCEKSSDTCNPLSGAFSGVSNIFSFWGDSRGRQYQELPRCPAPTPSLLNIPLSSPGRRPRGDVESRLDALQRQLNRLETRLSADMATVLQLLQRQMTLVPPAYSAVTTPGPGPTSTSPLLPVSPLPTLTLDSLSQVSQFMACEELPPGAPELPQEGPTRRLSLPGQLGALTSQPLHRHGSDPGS
# Assay: primary screen, population patch clamp on CHO cells stably expressing hERG
# 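Also: peak tail current of the secondary pulse compared with the same well before compound.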
row,Compound,"hERG current change (%, negative = inhibition) at 10uM"
1,COc1cc(/C=C2\SC(=S)N(CCC(=O)N3CCCCC3)C2=O)cc(OC)c1OC,3.71%
2,CC1=C(C(=O)OC2CCCC2)C(c2ccc(C)o2)C2=C(CC(c3cccs3)CC2=O)N1 (stereo not drawn),-20.7%
3,Cc1ccc(S[C@@H](CCN2CC[C@H](C(C)(C)C)CCC2=O)c2ccccc2)cc1,7.63%
4,Cc1ccccc1OCC(=O)N1N=C(c2cccnc2)CC1(O)C(F)(F)F (stereo not drawn),-5.38%
5,Cc1ccc2c(c1)c1c(n2CC(O)Cn2c(C)nc3ccccc32)C(=O)CCC1 (stereo not drawn),8.22%
6,O=C(Nc1cccc(F)c1)C1CCCCC1,-9.22%
7,CCOC(=O)c1ccc(-c2ccc(/C=C(\C#N)C(=O)NCC3CCCO3)o2)cc1 (stereo not drawn),0.577%
8,CCOc1cc(C2NN=C(c3ccc(C)cc3)S2)ccc1O (stereo not drawn),9.67%
9,CCc1ccc(C(=O)c2oc3nc(C)cc(C)c3c2N)cc1,16.6%
10,COc1ccc(/C=C/C(=O)c2ccc([N+](=O)[O-])o2)cc1,9.27%
11,O=C(CCNS(=O)(=O)c1ccc(OC(F)(F)F)cc1)N1CCN(C/C=C/c2ccccc2)CC1,-81.5%
12,O=[n+]1c2c(n([O-])c3cc(F)c(N4CCCC4)cc31)CCC2,0.13%
13,Cc1ccc(CNCc2cccnc2)s1.Cl,1.1%
14,O=C(NCC(=O)N1CC(O)CC1C(=O)N1CC(O)CC1C(=O)OCc1ccccc1)OCc1ccccc1 (stereo not drawn) (Cbz-Gly-[Hyp]-[Hyp]-OBn; configuration not given here),15.5%
15,O=C(COC(=O)c1ccc(Cl)c(S(=O)(=O)N2CCOCC2)c1)NCc1ccco1,-17%
16,COc1ccccc1-n1c(-c2ccccc2)c[n+]2c1CCc1ccccc1-2.[Br-],-74.1%
17,O=C(O)c1ccc2oc(=O)c(S(=O)(=O)c3ccccc3)cc2c1,18%
18,Nc1ncc2c(n1)-c1ccoc1CC2,27.8%
19,Cc1cccn2cc(CCNS(=O)(=O)c3cccs3)nc12,-3.37%
20,CCOC(=O)CN(C(=O)CNC(=O)c1cccs1)C(C(=O)NC1CCCC1)c1cccnc1 (stereo not drawn),3.79%
21,COc1ccc(C(=O)NCCCc2nc3ccccc3n2Cc2cc(C)ccc2C)cc1OC,-39.7%
22,CCCc1c(C)nn(-c2ncccc2[N+](=O)[O-])c1C,6.23%
23,c1ccc(N2OCC3Cn4c(nc5ccccc54)C32)cc1 (stereo not drawn),-5.05%
24,O=C(c1cc(=O)[nH]c2ccccc12)N1CCN(S(=O)(=O)c2ccc(Cl)cc2)CC1,-23.8%
25,N#Cc1cc2c(nc1SCC(=O)Nc1ccc(Cl)cc1)C1CCN2CC1,-7.69%
26,CCOC(=O)CSC1=C(C#N)C(c2ccccc2OCC)C(C(=O)OCC)C(=O)N1 (stereo not drawn),-7.93%
27,Cc1cc(C(=O)N2CCCC(C(=O)c3cccc(C(F)(F)F)c3)C2)nc(C)n1 (stereo not drawn),-9.14%

row,Compound,"hERG current change (%, negative = inhibition) at 10uM"
1,O=C(COc1ccc(/C=N/NC(=O)c2ccncc2)cc1)Nc1cccc([N+](=O)[O-])c1,14.1%
2,COc1ccc(Br)cc1CN(C)CC(=O)Nc1cc([N+](=O)[O-])ccc1OC,3.6%
3,CCOC(=O)c1[nH]c(C)c(C(=O)OCC)c1C,4.39%
4,COc1ccc(C(=O)Nc2ccccc2C(=O)N/N=C/c2ccccc2OC)cc1,13.7%
5,Cc1c(C(=O)O)c(C(=O)O)nc2ccc(N3CCOCC3)cc12,15%
6,COc1ccccc1NC(=O)CCSc1nnc(-c2ccncc2)o1,-2.96%
7,CC(C)C(=O)N1CCC2(CC1)Oc1ccc(Cl)cc1C(=O)C21CC(c2cccnc2)=NO1 (stereo not drawn),-27.9%
8,CC(CCc1ccccc1)NC(=O)Cc1ccc([N+](=O)[O-])cc1 (stereo not drawn),-43.7%
9,Cc1ccnc(NS(=O)(=O)c2ccc(NC(=O)c3ccc(S(=O)(=O)N4CCCC4)cc3)cc2)n1,7.82%
10,Cc1ccc(C(=O)Nn2cnnc2)cc1Cl,16.3%
11,NC(=O)C1(c2ccccc2)OC1c1ccccc1 (stereo not drawn),26.2%
12,CC(C)(C)OC(=O)C(C(=O)OC(C)(C)C)c1ccc(Cl)nn1,6%
13,O=C(CCC1CCCCC1)Nc1nncs1,-3.56%
14,CC(C)c1ccccc1NC(=O)C1CN(S(=O)(=O)c2ccccc2)CCN1S(=O)(=O)c1ccccc1 (stereo not drawn),11.4%
15,CCN1C(=O)c2ccc(C(=O)NCc3ccccc3)cc2C1=O,-4.73%
16,CCOc1cc2c(cc1OCC)-n1cccc1C(c1cccc([N+](=O)[O-])c1)NC2.Cl (stereo not drawn),-59.9%
17,COCCNC(=O)/C(C#N)=C\c1ccc(CNS(=O)(=O)c2ccc(C)cc2)o1,37.1%
18,O=C1NCCCC1C(=O)NCCNC(=O)C(F)(F)F (stereo not drawn),14.1%
19,CCN1C(=O)/C(=C\c2nc3ccccc3c(=O)n2-c2ccccc2)c2ccccc21,16.6%
20,Cc1cccc(N2CCN(C(=O)c3ccc(CNc4c(N5CCC(C)CC5)c(=O)c4=O)cc3)CC2)c1C,10.5%
21,O=C(C1=COCCO1)N1CCN(S(=O)(=O)c2cccc(Br)c2)CC1,-13.1%
22,COCCCNC(=O)C1CCN(C(=O)c2cc3sccc3n2Cc2ccc(F)cc2)CC1,-30%
23,Cc1cccc(-c2noc(CN(C(=O)c3c(-c4ccccc4Cl)noc3C)C(C)C)n2)c1,-3.05%
24,Cc1ccc(/C=C/C(=O)c2ccc([N+](=O)[O-])o2)cc1,-6.32%
25,O=S(=O)(NCCSc1ccccc1)c1ccc2c(c1)OCCO2,3.3%
26,c1ccc(-c2nnsc2-c2ncc[nH]2)cc1,6.51%
27,NC1=NC(=O)C(Cc2ccc(F)cc2)S1 (stereo not drawn),3.59%
